In all, about 410,000 compounds went through this assay and about 7,200 (1.8%) were called active. Inconclusive means that the source gave no clear call. Such entries were picked first, then a sample of the others. Calls follow the shape of the dose curve; as a rule, active = well fitted activation curve with a large enough effect; inconclusive = small, poorly fitted or top-dose-only effect, or another doubt; inactive = no such curve, though single readings can be large or run the other way. Potencies of inconclusive entries are left out as doubtful fits.
Experiment: qHTS of TDP-43 Inhibitors; also: nearly all actives have a fitted effect of over 50% in size; as to growth rescue (activation): % of control where 0% means no effect
Details: TDP-43 expressing yeast growth rescue, BacTiter-Glo, 24 h; growth rescue (activation): at 46.1 µM (top of the series) unless noted
In short: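 In this qHTS, compounds that restore growth of yeast expressing TDP-43 appear as activators. Cells (OD600=0.02, galactose medium, raffinose-pregrown) are incubated with compound 24 hr at 30 deg C and growth is quantified by BacTiter-Glo.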
Potency is read from the fitted curve at half-maximal effect; tags tell the direction and shape of the fitted curve.

Structure (SMILES) | Potency | growth rescue (activation)
Cc1nc(N2CCC(C)CC2)c2c(C)c(C(=O)Nc3ccc(C(F)(F)F)cc3)sc2n1 | inconclusive [activator, single point] | 
COC(=O)c1sccc1-c1ccc(C(=O)Nc2ccccc2)o1 | active: 12.6 µM | 
Cn1cccc1C(=O)Nc1nc(-c2ccccn2)cs1 | active: 14.1 µM | 
Cc1ccc(C(C)NC(=O)c2ccc3c(c2)OCCO3)cc1C (centres undefined) | inconclusive [activator, single point] | 
Cc1cc(C)cc(C(=O)NCCn2cc(SCC(=O)N3CCOCC3)c3ccccc32)c1 | inconclusive [activator, single point] | 
Cc1cc(NC(=O)C2CCCN(S(=O)(=O)c3cccc4nsnc34)C2)ccc1Br (centres undefined) | inconclusive [activator, partial curve] | 
O=C(Nc1cc(Cl)cc(Cl)c1)c1ccc(F)c(S(=O)(=O)N2CCN(c3ccccc3F)CC2)c1 | inactive | 
Cn1c(C(=O)Nc2ccc(OC(F)(F)F)cc2)cc2c(=O)n3ccccc3nc21 | inconclusive [activator, partial curve] | 
CCc1cccc(NC(=O)c2ccc3c(c2)c(C)c(C)n3Cc2ccc(F)cc2)c1 | inconclusive [activator, partial curve] | 
COC(=O)[C@@]1(Cc2ccc(F)cc2)[C@H]2c3cc(C(=O)N4CCCC4)n(Cc4ccc(C)c(F)c4F)c3C[C@H]2CN1C(=O)c1ccccc1 | inconclusive [activator, partial curve] | 
Cc1ccccc1NC1=C(Cl)C(=O)OC1OC(=O)c1ccco1 (centres undefined) | inactive | 
Cc1ccc(OCC(=O)Nc2cccc(C(=O)OCc3cc(=O)n4c(C)csc4n3)c2)cc1 | inconclusive [activator, partial curve] | 
Cc1ccc(-c2cc(C(F)F)nc(NCc3cccnc3)n2)cc1 | inactive | 
CCc1ccc(NCc2cc3ccc(OC)cc3n(CC(=O)Nc3ccc(C)c(Cl)c3)c2=O)cc1 | inactive | 
CCn1ccc(C(=O)Nc2sc3c(c2C(=O)OC)CCC3)n1 | inconclusive [activator, partial curve] | 
Nn1c(SCC(=O)Nc2ccc3c(c2)OCO3)nnc1-c1ccc(Cl)cc1 | inconclusive [activator, partial curve, poor fit] | 
COc1cc(OC)c(OC)cc1CNCCCSc1nnnn1C | inconclusive [activator, single point] | 
COc1ccccc1NC(=S)N/N=C/c1ccc(O)cc1 | inconclusive [activator, single point] | 
COc1ccc(CCNC(=S)N2CCC(Cc3ccccc3)CC2)cc1OC | inconclusive [activator, single point] | 
C=Cc1cnc([N+](=O)[O-])n1C | inconclusive [activator, partial curve] | 
CCOc1cc(-c2noc(CCC(=O)NC3CCCCC3)n2)ccc1OC | inconclusive [activator, full curve, poor fit] | 
COC(=O)C1CCN(c2csc3ccc(Cl)cc3c2=O)CC1 |  | inconclusive: -93.3% [activator]

Structure (SMILES) | Potency | growth rescue (activation)
CC(C)CNc1ncnc2c1ncn2[C@H]1CN(Cc2ccncc2)C[C@@H](CO)O1 | inconclusive [activator, partial curve] | 
CCc1nn(CC(=O)Nc2cc(C)ccc2C)c(=N)s1 |  | inactive: 4.69% [at 9.22 µM]
CC(C)=C1SC(N2CCN(c3cccc(Cl)c3)CC2)=NC1=O | inconclusive [activator, partial curve] | 
CCCC(=O)Nn1cnc2c(c1=O)C1(CCCC1)Cc1ccccc1-2 | inconclusive [activator, partial curve] | 
S=c1[nH]cnc2scc(-c3ccc(Cl)cc3)c12 | inconclusive [activator, partial curve] | 
CCOC(=O)c1c(S(=O)(=O)N2CCC(C(=O)N3CCN(c4ccc(F)cc4)CC3)CC2)c(C)n(C)c1C | inactive | 
S=C(Nc1ccccc1)Nc1ccc(Br)cc1 | inconclusive [activator, single point] | 
O=C(CCl)NCCCCCCCCCNC(=O)CCl | inconclusive [activator, single point] | 
Cn1cc(S(=O)(=O)N2CCOCC2)cc1C(=O)Nc1cccc(C#N)c1 | inactive | 
CC(C)c1ccc(CNc2n[nH]c(-c3ccco3)n2)cc1 | inconclusive [activator, full curve] | 
Cc1ccc(CSc2nc(-c3ccccc3C)nc3c2Cc2c(CO)cnc(C)c2O3)cc1 | inconclusive [activator, partial curve] | 
CC(=O)Nc1nonc1-c1nnc(SCC(=O)Nc2ccc(C)c(Cl)c2)n1C | inconclusive [activator, partial curve] | 
Cc1ccc(C)c(S(=O)(=O)N(C)Cc2cccs2)c1 | inconclusive [activator, partial curve] | 
COc1cc(/C=C/C(=O)c2ccc(C)cc2)ccc1OCC#N | active: 20 µM | 
CCNc1nc(NCC)nc(N(C#N)CCOc2ccccc2)n1 | inactive | 
Cn1c(=NC(=O)CS(=O)(=O)c2ccc(F)cc2)sc2ccccc21 | inactive | 
O=C(CSc1oc(-c2ccc(F)cc2)nc1S(=O)(=O)c1ccc(Br)cc1)NC1CCCCC1 | inactive | 
Cc1ccc(CCNC(=O)C2CCCN(S(=O)(=O)c3c(C)noc3C)C2)cc1 (centres undefined) | inactive | 
CCCCOc1ccc(C(=O)NCC(=O)NCC(=O)OCC)cc1 | inconclusive [activator, full curve, poor fit] | 
CCC[C@@H]1C[C@@]1(CCC)[C@@H](NP(=O)(c1ccccc1)c1ccccc1)c1ccc(C(=O)OC)cc1 | inactive | 
Cc1ccc(N2CCN(S(=O)(=O)c3c(C)nc4scc(C)n4c3=O)CC2)c(C)c1 | inconclusive [activator, single point] | 
CC(C)COC(=O)C1C(=O)CC(C)(O)C(C(=O)OCC(C)C)C1c1cccnc1 (centres undefined) | inactive | 

Reference: PubChem BioAssay AID652104 (National Center for Advancing Translational Sciences (NCATS), 2013)
